# The campaign covered roughly 310,000 compounds. About 2,200 (0.71%) showed an effect of 50% or more. The effect is printed as a negative number. The list shows a part of the results.
# Molecular target: human ether-à-go-go-related gene (hERG) potassium channel (human, UniProt Q12809)
# Assay: primary screen, population patch clamp on CHO cells stably expressing hERG
# Sequence of human ether-à-go-go-related gene (hERG) potassium channel (Q12809 whole entry, looked up): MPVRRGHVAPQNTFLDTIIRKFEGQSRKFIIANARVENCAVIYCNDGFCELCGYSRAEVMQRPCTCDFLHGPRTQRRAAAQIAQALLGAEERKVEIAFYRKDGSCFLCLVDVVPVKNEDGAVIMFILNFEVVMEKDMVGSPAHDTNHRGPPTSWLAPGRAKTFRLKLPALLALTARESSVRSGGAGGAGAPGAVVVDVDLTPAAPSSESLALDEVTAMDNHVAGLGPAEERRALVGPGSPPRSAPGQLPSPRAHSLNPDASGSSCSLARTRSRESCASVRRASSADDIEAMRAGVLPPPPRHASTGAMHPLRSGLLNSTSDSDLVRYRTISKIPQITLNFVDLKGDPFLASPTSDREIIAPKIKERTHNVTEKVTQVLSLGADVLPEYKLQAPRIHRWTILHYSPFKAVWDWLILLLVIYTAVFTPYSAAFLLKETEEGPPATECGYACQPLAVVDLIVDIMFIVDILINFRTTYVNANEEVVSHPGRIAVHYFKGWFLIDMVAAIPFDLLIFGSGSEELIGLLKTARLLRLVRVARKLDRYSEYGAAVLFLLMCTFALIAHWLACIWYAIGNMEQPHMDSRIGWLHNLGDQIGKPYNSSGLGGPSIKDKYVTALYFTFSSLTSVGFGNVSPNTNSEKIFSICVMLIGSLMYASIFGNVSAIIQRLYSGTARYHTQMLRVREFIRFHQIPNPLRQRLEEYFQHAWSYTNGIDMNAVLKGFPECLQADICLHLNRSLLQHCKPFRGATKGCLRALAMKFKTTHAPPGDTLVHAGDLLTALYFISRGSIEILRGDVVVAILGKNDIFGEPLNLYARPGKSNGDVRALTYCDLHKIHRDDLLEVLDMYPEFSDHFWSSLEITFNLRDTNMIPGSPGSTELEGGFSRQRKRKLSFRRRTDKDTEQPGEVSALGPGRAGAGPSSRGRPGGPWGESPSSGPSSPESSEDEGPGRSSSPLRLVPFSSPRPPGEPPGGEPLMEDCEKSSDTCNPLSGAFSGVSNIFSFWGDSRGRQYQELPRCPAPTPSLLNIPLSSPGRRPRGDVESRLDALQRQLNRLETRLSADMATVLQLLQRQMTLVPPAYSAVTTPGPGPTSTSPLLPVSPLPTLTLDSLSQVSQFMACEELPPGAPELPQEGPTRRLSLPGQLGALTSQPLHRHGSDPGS
row,SMILES,"hERG current change (%, negative = inhibition) at 1uM [%]"
1,CCOC(=O)N/N=C/c1c(C)nn(-c2ccccc2Cl)c1Cl,-0.338
2,O=C1C=C(c2ccccc2)C[C@H](c2cccs2)[C@H]1n1cnc([N+](=O)[O-])c1,2.53
3,Cc1nnc(Cl)c2nn(-c3ccccc3)c(C)c12,19.1
4,Cc1ccc(-n2c(C)cc(/C=N/NC(N)=S)c2C)cc1,16.5
5,COc1cc2c(cc1OC)C(NC(=O)C(F)(F)F)C/C2=N\O (stereo not drawn),0.323
6,CCOC(=O)c1cccc(P(C)(C)=O)c1,12.4
7,O=C(CCc1cn(Cc2ccc(F)cc2)c2ccccc12)N1CCOCC1,6.5
8,COc1ccc(C(=O)Nc2ccc(/C(C)=N/NC(=O)c3ccncc3)cc2)cc1,-7.49
9,COc1ccc(OCc2nnc3n2N=C(c2ccc(C)cc2)CS3)cc1,11.7
10,COCCSc1ccccc1C(=O)Nc1nccs1,10.9
11,Cn1c(=O)c2c(nc(Oc3ccc4c(c3)OCO4)n2Cc2ccc(F)cc2)n(C)c1=O,12.5
12,O=S(=O)(N/N=C\c1ccc2c(c1)OCO2)c1ccc(F)cc1,15.9
13,Cc1ccc(-c2nnn(CC(=O)Nc3ccc(S(=O)(=O)N4CCC(C)CC4)cc3)n2)cc1,0.314
14,Cc1ccc(S(=O)(=O)NC2CC(C)(C)NC(C)(C)C2)cc1,27.5
15,CCC(CC)COC(=O)C1=C(C)NC(=O)NC1c1ccc([N+](=O)[O-])cc1 (stereo not drawn),9.49
16,Cc1nn2cc(-c3cccc(Cl)c3)cnc2c1Cl,6.1
17,COc1ccc(Sc2cc(C(F)(F)F)nc(-c3ccccn3)n2)cc1,4.35
18,CCN(CC(=O)NCc1cccs1)C(=O)c1cccc(S(=O)(=O)Nc2ccc(OC)cc2)c1,2.84
19,O=S1(=O)N[C@H](c2ccccc2)C[C@H](c2ccc(C(F)(F)F)cc2)O1,18.2
20,O=C(/C=C/c1ccncc1)c1cc(Cl)ccc1O,18.6
21,CCc1ccccc1NC(=O)CN1C(=O)C2CCCN2c2ncc(Cl)cc21 (stereo not drawn),11.8
22,CC(C)c1ccc(C(O)P(=O)(OCc2ccccc2)c2ccc(N(C)C)cc2)cc1 (stereo not drawn),11.8
23,C/C(N)=C(/C#N)C(=O)CSc1nc(C2CCCCC2)n(-c2ccccc2)n1,11.3

row,SMILES,"hERG current change (%, negative = inhibition) at 1uM [%]"
1,Cc1ccc(NC(=O)CN2C(=O)NC(Cc3c[nH]c4ccccc34)C2=O)cc1 (stereo not drawn),8.72
2,O=C(NN1C(=O)NC2(CCCCC2)C1=O)c1ccc(-c2ccc([N+](=O)[O-])cc2)o1,2.68
3,Cc1ccc(-c2cc(C(=O)N/N=C/c3ccco3)[nH]n2)cc1,5.38
4,O=c1cc(CN2CCN(c3cccc(C(F)(F)F)c3)CC2)nc2sccn12,2.21
5,COc1ccccc1N1CCN(/N=C/c2ccccc2C(=O)O)CC1,15.7
6,COc1cc(C(=S)N2CCC(C(N)=O)CC2)ccc1O,6.37
7,CCCCc1ccc(NC(=O)N[C@@H](CC(C)C)C(=O)O)cc1,9.32
8,S=C(Nc1ccccc1Cl)N1CCCC1,11.1
9,Cc1ccc2[nH]c(=O)c(CN(CCc3ccccc3)C(c3nnnn3Cc3ccco3)C(C)C)cc2c1 (stereo not drawn),12.2
10,Cc1c(CCOC(=O)c2ccc([N+](=O)[O-])cc2)sc[n+]1CC(=O)c1ccccc1.[Br-],-6.66
11,Cc1cccc(OCCOCCN2CCOCC2)c1C,-10.4
12,CC(C)Cn1c(N)c(C(=O)COC(=O)CC23CC4CC(CC(C4)C2)C3)c(=O)n(C)c1=O,13.6
13,Clc1ccccc1OCCn1ccnc1,6.3
14,Cc1cc([N+](=O)[O-])c2ccccc2[n+]1[O-],15
15,CNC(=O)c1c(NC(=O)c2ccc(S(=O)(=O)N(C)c3ccccc3)cc2)sc2c1CCN(C(C)C)C2,12.9
16,CCCCN(C)c1c(N2CCC(C(=O)OCC)CC2)c(=O)c1=O,0.0218
17,O=C(O)CSc1nnc(-c2ccccc2)o1,15.5
18,C/C=C(\C)C(=O)NCCN1C2=NC[C@H](Cc3ccc(O)cc3)N2C[C@@H]1Cc1ccc(OC)cc1,10.6
19,CCCCn1c(N)c(N(CC(C)C)C(=O)c2cc3c(s2)CCC3)c(=O)[nH]c1=O,9.32
20,O=C1CC(SCc2nc3ccccc3[nH]2)C(=O)N1c1cccc(Cl)c1 (stereo not drawn),-14.2
21,O=C(NCCc1ccc(F)cc1)C(=O)Nc1cc2c3c(c1)CC(=O)N3CCC2,4.06
22,CCOc1ccc(NS(=O)(=O)c2ccc(OC)c(C)c2)cc1,6.27
23,O=C(CSc1nc(-c2ccccc2)cc(=O)[nH]1)N1CCc2ccccc21,-0.629

row,SMILES,"hERG current change (%, negative = inhibition) at 1uM [%]"
1,Cc1ccc(C2(C)NC(=O)N(CC(=O)Nc3nc(-c4ccccn4)cs3)C2=O)cc1 (stereo not drawn),7.58
2,CCC1CCCCN1C(=O)COc1c(Br)cc(Br)c2cccnc12 (stereo not drawn),15.9
3,CC(=O)Nc1nnc(Cc2ccccc2)s1,13.8
4,COC(=O)c1cnc[nH]1,10.4
5,COc1ccc(-c2[nH]ncc2CN2C[C@@H]3CCC[C@H]2C3)c(F)c1,15.4
6,CCOC(=O)C1=C(c2ccccc2)Nc2ncnn2C1c1ccccn1 (stereo not drawn),6.89
7,Cc1cc(=O)n2[nH]c(-c3ccc(F)cc3)cc2n1,11.1
8,COCc1c(Br)c(C)nc(OCC(=O)N/N=C/c2ccc(C)o2)c1C#N,3.72
9,COCCCN(C(=O)c1cc2c(s1)CCC2)c1c(N)n(Cc2ccccc2)c(=O)[nH]c1=O,7.23
10,O=C(CN(Cc1ccccc1F)C(=O)c1csnn1)NCc1ccc2c(c1)OCO2,8.42
11,CC(=O)Nc1ccc(S(=O)(=O)NCCC(=O)NCCCc2ccccc2)cc1,2.47
12,COc1ccc(/C=N/n2cncn2)cc1Cn1cc([N+](=O)[O-])cn1,-9.39
13,CCOC(=O)c1cccc(-n2c(C)nc3ccccc3c2=O)c1,5.29
14,O=C(NCCN1C(=O)C2C3C=CC(C3)C2C1=O)Nc1ccccn1 (stereo not drawn),5.7
15,COc1ccc(C(=O)COc2cccc(NC(=O)c3ccco3)c2)cc1,-8.6
16,CCCOc1ccccc1NC(=O)c1ccc(N)cc1,-0.204
17,COc1ccc(S(=O)(=O)Cc2ccc(C(=O)NC3CC3)o2)cc1,1.8
18,CSc1ccccc1NC(=S)NC1CCCCC1,7.63
19,CCc1ccc(/C=N/n2c(COc3ccccc3)n[nH]c2=S)cc1,13.6
20,O=C(NCc1cccc(C(F)(F)F)c1)c1cc(Cl)ccc1Cl,19.5
21,COc1ccc2[nH]cc(CCNC(=O)COc3cc(C)cc4oc(=O)cc(C)c34)c2c1,5.9
22,CC1CC(CCC(=O)NC(=S)Nc2ccc(S(N)(=O)=O)cc2)C(=O)O1 (stereo not drawn),16.4
23,CCC1(C)CC(CC(=O)O)(c2ccccc2OC)CCO1 (stereo not drawn),11.1

row,SMILES,"hERG current change (%, negative = inhibition) at 1uM [%]"
1,Cc1cccc(NC(=O)C2CC(O)CN2C(=O)OCc2ccccc2)c1 (stereo not drawn),7.92
2,CC(C)c1ccc(N(CC(=O)NCCc2ccccc2)C(=O)c2csnn2)cc1,-9.14
3,CCOC(=O)Cc1csc(NC(=O)c2sc3nc4ccc(CC)cc4cc3c2N)n1,14.3
4,Cc1cc2ncn(CC(C)C)c2cc1C,10.1
5,CC(OC(=O)c1ccc(-n2cnnn2)cc1)C(=O)Nc1ccccc1[N+](=O)[O-] (stereo not drawn),-3.03
6,Cc1ccc2[nH]c3ccccc3c(=O)c2c1,4.4
7,Cc1ccc2cccc(SCC(=O)Nc3ccc(F)cc3)c2n1,12
8,COc1ccc(NC(=O)CSc2nncn2C)cc1,17.1
9,N#Cc1ccccc1Sc1ccccc1C(=O)OCC(=O)NC1CCCCC1,4.72
10,Cc1ccc(S(=O)(=O)NCCC(=O)N2CCC(C(N)=O)CC2)cc1C,-9.17
11,COc1cc(/C=C2/C(=O)N(C)C(=S)N2C)ccc1OCc1cccc(F)c1,15.3
12,CN(CC1COc2ccccc2O1)C(=O)CSc1ncnc2sccc12 (stereo not drawn),-1.12
13,O=C(Nc1ccncc1)c1ccc(Cl)c(Cl)c1,9.21
14,O=[N+]([O-])c1ccc(N=Nc2c(Cl)cc(O)cc2Cl)cc1,6.86
15,CS(=O)(=O)N(CCC(=O)O)Cc1ccccc1,-1.19
16,COc1ccc(C(=O)COC(=O)c2cc([N+](=O)[O-])ccc2N2CCOCC2)c(OC)c1,7.74
17,O=[N+]([O-])c1nn(-c2ccc(Cl)cc2)n(O)c1=NCc1cccnc1,9.32
18,COc1cc(S(=O)(=O)NC2CCCC2)ccc1-n1cnnn1,9.26
19,CCNC(=O)/C(C#N)=C/c1c(N2CCOCC2)nc2ccccn2c1=O,9.75
20,Cc1ccc(-n2nc(C)c3c(C)cc(=O)[nH]c32)cc1,-11.2
21,CCOc1ccc(NC(=O)N2CCN(CC)CC2)cc1,13.5
